± gives the standard deviation of the averaged measurements. This is one part of the list.
These sequences were tested on PfAP2-LT AP2 domain (GST-tagged) (assay: gcPBM binding intensity (ln(normalized median fluorescence intensity)); higher = stronger DNA binding).
Procedure, shortened: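 GST-tagged P. falciparum DNA-binding domains, expressed in E. coli (about 25 μg on average), were applied for 1 h to an Agilent 4 × 180k array of primer-extended double-stranded 36-bp intergenic genomic probes plus negative controls. The binding buffer was 1× PBS with 1% milk, 0.2 mg/ml BSA, 0.5% salmon testes DNA and 0.03% Triton X-100. Bound protein was detected with Alexa488 anti-GST antibody and scanned at 488 nm. Binding intensity is the highest Masliner-normalised natural-log median intensity across replicate spots of either probe orientation.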

Row | Sequence | gcPBM binding intensity (ln)
1 | AACTATAAAAAAAATACACACATTACCAAAAATATA [CACACA_site1529] | 9.13 ± 0.39
2 | TTTAATAATTATTAAAGTACAAAATAAATATTGAAT [XGTACX_site7538] | 8.62 ± 0.38
3 | TATAAAAAAATATATATATATATATATATATAAATA [TGCATGCA_negctrl_site22] | 9.09 ± 0.37
4 | GATAAAACGTTATGCACACGTACGTGGGTATTTATA [CACACA_site4954] | 9.25 ± 0.44
5 | AAGAAAAAAAAAAAAAATATATATATAAGAACATAT [TGCATGCA_negctrl_site131] | 8.71 ± 0.47
6 | TAATATTATTTAGAGTGTACTCATAAATCAACAAAA [XGTACX_site5269] | 8.38 ± 0.51
7 | ATATAGAACACCTGTGCATGCAAGTGCTAAAAAATT [TGCATGCA_site213] | 9.25 ± 0.52
8 | CTATTTTTATATTATTGTACGTTGTTATTATATATA [XGTACX_site1469] | 8.87 ± 0.49
9 | CTAAGCTAAGTAAGCTGTACTTCACCTTTATACAGT [XGTACX_site3087] | 8.89 ± 0.52
10 | ATATATATGGAAACAGTGCAATACATATATATATAT | 9.61 ± 0.6
11 | TTTATATTTATATATACACACATATACATCCTATTT [CACACA_site3079] | 9.13 ± 0.47
12 | TTTTTTTTTTTTAATACACACATATTTATATTTATT [CACACA_site7802] | 8.8 ± 0.53
13 | TTTTTCTTAAAAAATTGTACACATATATATATATAT [XGTACX_site542] | 9.05 ± 0.15
14 | ATTAAGTTAAACATTACACACTATGTATTATTTATG [CACACA_site973] | 9.02 ± 0.45
15 | ATATATATATATATATGTACTAACCTTTTAAAATAT [XGTACX_site6488] | 9.355 ± 0.078
16 | AATTGGGTAGGACATGCATGAGAAATTAATATTGCA [TGCATGCA_site356] | 9.12 ± 0.58
17 | AATCAAAGCCCACATACACACACATATATATATATA [CACACA_site7987] | 10 ± 0.2
18 | TATTACATTGTTGAATGTACTCATTTAAAATTTATA [XGTACX_site7987] | 8.44 ± 0.41
19 | ATGTCAAACATTTGCACACAAAAAAATAAAAATTAA [CACACA_site692] | 9.1 ± 0.48
20 | TTATACTAAATGAACACACACACATCTATATTTATA [CACACA_site6199] | 9.51 ± 0.29
21 | AAATTAGACTATAATACACACATAAAAAAAAAATCA [CACACA_site7672] | 8.98 ± 0.35
22 | AATTAAAATAATAATACACACATCATAGAAAAAGAC [CACACA_site292] | 9.33 ± 0.35
23 | TTTTTTTTTTTTTTCTCACACATTTAATGATAATAT [CACACA_site5513] | 8.61 ± 0.45
24 | CATATTTACTATCACACACACGATATATATAAATAT [CACACA_site1241] | 9.4 ± 0.42
25 | TTTTTTTTTTTTTGCACACACATAATAGGTACAAAT [CACACA_site3577] | 9.22 ± 0.41

Source: the supplement of paper PMC11417369
